From PubChem BioAssay AID1159614 (National Center for Advancing Translational Sciences (NCATS), 2016)
Screen size: about 45,000 compounds; about 65 (0.1%) were called active. Calls come from the whole dose curve; as a rule, active = well fitted activation curve with a large enough effect; inconclusive = small, poorly fitted or top-dose-only effect; inactive = no such curve, though single readings can be large or run the other way. Some of the results follow.

target: Galactocerebrosidase (Homo sapiens) (UniProt P54803); assay: A Novel Cell-Based Assay to Identify Small Molecules for B -Galactocerebrosidase; settings: 145M-Twi-hGALC-G270D cells (Twitcher mouse brain line with human GALC G270D), HMU-beta-Gal fluorescence, 48 h; activation: at the top concentration; note: 0% is about no effect; nearly all actives have a fitted effect of over 65% in size
From the text: Lysosomal storage diseases (LSDs) are caused by genetic mutations in genes encoding proteins important for normal lysosomal function. Globoid cell leukodystrophy (GLD), mostly known as Krabbe disease, is a prototype of the neurological LSDs caused by deficiency of beta-galactocerebrosidase (GALC). In brain specimens of GLD patients, psychosine levels are substantially elevated. At elevated concentrations, psychosine becomes cytotoxic to neuronal cells, particularly to oligodendrocytes (OLG), neural cells responsible for myelin formation. Therefore, the biochemical disturbances in GLD are manifested by different degrees of brain demyelination resulting in a broad spectrum of neurological manifestations. Most of the FDA-approved therapies are based on enzyme replacement therapeutic (ERT) agents, which treat non-neurological symptoms of Gaucher disease, Fabry disease, few mucopolysaccharidoses and Pompe disease. Unfortunately, in GLD, a primarily neurological LSD, ERT agents, as large molecular weight molecules unable to cross the blood-brain barrier, which makes this an inefficacious therapeutic approach. In GLD, increasing the residual GALC activity just above the critical threshold (~10% of wild type enzymatic activity), the cytotoxic levels of psychosine will be reduced, avoiding the OLGs apoptosis and the subsequent demyelination process. This will translate in disease stabilization and amelioration of GLD patient symptoms.
A cell-based assay in 1,536-well plate format was developed to implement a quantitative high-throughput screening (qHTS) assay using GLD-disease relevant cells to identify small molecules that produce enhancements of the residual enzymatic activity levels of mutants GALC found and prevalent in GLD patients. Compounds that are active may therefore have some therapeutic application for GLD. After the treatment of live cells for a determined period, using a fluorescent GALC specific substrate, the mutant residual GALC activity is measured. This cell-based qTHS assay was used to screen part of the MLPCN library for small molecule able to increase the mutant GALC enzymatic activity. In this assay, increased fluorescent signal corresponds to enhanced levels of mutant GALC residual enzymatic activity. Activation is the desired outcome for this assay.
NIH Chemical Genomics Center [NCGC]
NIH Molecular Libraries Probe Centers Network [MLPCN]
Assay Submitter (PI): Gustavo Maegawa MD,PhD, University of Florida, Gainesville, FL
2)#Two cell lines were established for the assay: 145M-Twi-hGALC-G270D (brain-derived Twitcher cell line stably expressing human GALC-G270D) and 145M-Twi-hGALC-WT (same 145M-Twi stably expressing human GALC wild type). The Twitcher is the murine C57B/6 model for GLD with naturally occurring homozygous nonsense GALC mutation. The 145M-Twi cell line was established at Maegawa lab (Ribbens J et al 2014).
a.#Media: DMEM/F12 (1:1) with 10% fetal bovine-serum (FBS) with penicillin/streptomycin (PS-1X - 100 I.U./mL of penicillin+100 ug/mL of streptomycin).
b.#The 6-Hexadecanoylamino-4-methylumbelliferyl-b-D-galactoside (HMU-B-gal) substrate was prepared as per Wiederschain et al 1992. Using 20-mL borosilicate tubes, 2.20 mg of HMU-b-Gal was added in each tube to prepare substrate-film with a final air-nitrogen stream evaporation to remove all diluent solvents.
c.#The HMUb-Gal substrate buffer consists of 0.2 M Na2HPO4 (sodium phosphate dibasic)/ 0.1 M Citric Acid with the pH adjusted to 5.2 using HCl. Sodium Azide at 0.02% and Sodium Taurocholate (NaTC) at 1 mg/mL were added to this substrate buffer.
d.#The HMU-b-Gal stopping buffer consist of 0.5 M NaHCO3 (sodium bicarbonate) /0.5 M Na2CO3 (sodium carbonate). […] Triton X-100 at 0.25% was added.
4)#Preparation of HMU-b-Gal substrate tubes
Adding 18.6 mL of the HMUb-Gal substrate buffer to each 20-mL tube (2.20 mg of HMU-b-Gal) will reach a concentration of 0.2 mM. Vortex well the tube until the solution is fully homogenized (clear cloudy solution). […]

Sequence of UniProt P54803 (P54803 whole entry, looked up): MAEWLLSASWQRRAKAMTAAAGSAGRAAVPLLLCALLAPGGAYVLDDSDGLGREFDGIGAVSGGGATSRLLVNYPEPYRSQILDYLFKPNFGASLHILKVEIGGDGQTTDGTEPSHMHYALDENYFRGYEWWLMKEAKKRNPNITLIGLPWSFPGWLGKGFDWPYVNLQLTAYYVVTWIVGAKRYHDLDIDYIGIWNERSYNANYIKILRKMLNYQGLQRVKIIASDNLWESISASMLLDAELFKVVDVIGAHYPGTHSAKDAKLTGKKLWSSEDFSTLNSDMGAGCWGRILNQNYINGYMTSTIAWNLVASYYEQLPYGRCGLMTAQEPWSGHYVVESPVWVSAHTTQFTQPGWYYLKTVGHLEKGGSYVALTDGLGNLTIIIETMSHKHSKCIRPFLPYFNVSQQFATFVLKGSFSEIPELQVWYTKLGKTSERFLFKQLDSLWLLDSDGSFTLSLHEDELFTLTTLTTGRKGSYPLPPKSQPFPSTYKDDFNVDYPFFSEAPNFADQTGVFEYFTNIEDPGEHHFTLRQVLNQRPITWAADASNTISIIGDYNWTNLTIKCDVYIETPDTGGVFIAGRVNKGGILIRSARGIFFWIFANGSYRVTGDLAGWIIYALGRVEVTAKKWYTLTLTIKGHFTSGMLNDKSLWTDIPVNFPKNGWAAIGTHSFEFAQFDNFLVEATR

Structure (SMILES)	activation
CCCCCCCCC(=O)NCc1ccc(O)c(OC)c1	inactive: -10.4%
CCC12CN3CC(CC)(CN(C1)C3c1ccccn1)C2=O (configuration not stated)	inactive: -9.98%
CC(=O)N1CC(=O)Nc2ccc(F)cc2C1c1ccccc1 (configuration not stated)	inactive: -16.7%
O=S(=O)(O)C(F)(F)C(F)(F)C(F)(F)C(F)(F)F	inactive: -7.67% [at 129 µM]
Cc1cc(C)cc(-n2c(=O)[nH]c3ccccc3c2=O)c1	inactive: -9.1%
Cc1ccc([N+](=O)[O-])[c]2c1[O][Hg]2	inactive: 1.49%
COP(=S)(OC)Oc1cc(Cl)c(Cl)cc1Cl	inactive: -19.2%
CCCSc1nc2ccccc2c(=O)n1-c1ccccc1OC	inactive: -7.32%
O=C(O)c1ccc(=O)[nH]c1	inactive: -11.1%
O=C1CC(c2ccc(Br)cc2)c2c(c3ccccc3oc2=O)O1 (configuration not stated)	inactive: -5.99%
CC[N+]1(CC)CCC(OC(=O)C(O)(c2ccccc2)c2ccccc2)C1 (configuration not stated)	inactive: -13.7%
O=C(Nc1ccon1)c1cccn(Cc2cccc(Cl)c2)c1=O	inactive: -24.3%
C=CCC1([C@H](C)CCC)C(=O)NC(=O)NC1=O	inactive: -10.7% [at 114 µM]
Cc1oc(-c2ccc(Cl)cc2)nc1CN1C(=O)CN=C(c2ccccc2)c2ccccc21	inactive: 15.3%
Cc1cccc(NC(=O)Cn2cc(C(=O)c3ccccc3)c3ccccc32)c1C	inactive: -11.5%
O=c1[nH]c2ccccc2c(=O)n1-c1ccc(Cl)c(Cl)c1	inactive: -20.5%
Cc1ccc(NC(=O)N(Cc2ccc3c(c2)OCO3)C2CCN(Cc3ccccc3)CC2)cc1F	inactive: 0.878%
C[C@@H]1O[C@@H](O[C@@H]2C=C3CC[C@@H]4[C@H](CC[C@]5(C)[C@@H](c6ccc(=O)oc6)CC[C@]45O)[C@@]3(C)CC2)[C@H](O)[C@H](O)[C@H]1O	inactive: -24.8%
C#CCN(C)[C@H](C)Cc1ccccc1	inactive: -12.2%

Structure (SMILES)	activation
O=C(Cn1c(=O)oc2cc(S(=O)(=O)N3CCCCCC3)ccc21)NCc1ccccc1Cl	inactive: -32.5%
O=C(Nc1ccc(Br)cc1)c1cc(Br)cc(Br)c1O	inactive: 3.9%
Cc1cc(C)cc(-n2c(/C=C/c3cccc(F)c3)nc3ccccc3c2=O)c1	inactive: -16.6%
COc1ccc(NC(=O)CN2C(=O)C(C)N=C(c3ccccc3F)c3cc(Cl)ccc32)c(OC)c1 (configuration not stated)	inactive: -10.6%
CC(=O)N1CCc2cc(S(=O)(=O)N3CCN(c4ccc(C)cc4)C(C)C3)ccc21 (configuration not stated)	inactive: -35%
CC1COC2(c3ccccc3Cl)c3cc(Cl)ccc3NC(=O)CN12 (configuration not stated)	inactive: -11.3%
O=C(Nc1ccccc1-c1ccc(Cl)cc1)c1cccnc1Cl	inactive: -15.6% [at 114 µM]
CCCCCCCCCCCC[N+](C)(C)CCOc1ccccc1	inactive: -13.3%
Cc1nnc(NC(=O)c2cccn(Cc3ccc(Cl)cc3)c2=O)s1	inactive: -10.8%
CC(C)NCC(O)c1ccccc1Cl (configuration not stated)	inactive: -19.4%
CCC(C(N)=O)N1CCCC1=O (configuration not stated)	inactive: -19.3%
COc1ccc2c(C(=O)c3ccc(Cl)cc3)c(C)n(CC(=O)O)c2c1	inactive: -21.4%
C=CCOC(Cn1ccnc1)c1ccc(Cl)cc1Cl (configuration not stated)	inactive: -13.6%
CC(=O)Nc1cc([As](=O)(O)O)ccc1O	inactive: -18.7%
COc1ccc(OC)c(NC(=O)Cn2cc(C(=O)c3ccccc3F)c3ccccc32)c1	inactive: -7.83%
CCN(CCO)CCn1c(Cc2ccccc2)nc2c1c(=O)n(C)c(=O)n2C	inactive: -16.1%
ClC1=C(Cl)C2(Cl)C(CBr)CC1(Cl)C2(Cl)Cl (configuration not stated)	inactive: -16.2%
Cc1ccc(-n2c(/C=C/c3ccc(Br)s3)nc3ccccc3c2=O)cc1C	inactive: -5.46%
CC(=O)[O][Hg][c]1ccccc1	inactive: -21.5%

Structure (SMILES)	activation
FC(F)(F)c1cccc(C2=CCN(CCc3ccc4ccccc4c3)CC2)c1	inactive: -19.1%
C=CCN1CC[C@]23CCCC[C@H]2[C@H]1Cc1ccc(O)cc13	inactive: -21%
CCOP(=S)(OCC)O/N=C(\C#N)c1ccccc1	inactive: -16.8%
Cc1ccc(NC(=O)CN2C(=O)CN=C(c3ccccc3)c3ccccc32)c(C)c1	inactive: -27.7%
O=C(c1ccc2c(c1)N(Cc1ccc(F)cc1Cl)C(=O)c1ccccc1S2)N1CCC2(CC1)OCCO2	inactive: -8.96%
CC(=O)Nc1nnc(S(N)(=O)=O)s1	inactive: -11.1%
Fc1ccc(N2CCN(c3ncnc4c3nc3n4CCCCC3)CC2)cc1	inactive: 4.2%
C=CC(=O)NCNC(=O)C=C	inactive: -10.6% [at 114 µM]
CCCCc1nc2ccccc2c(=O)n1-c1cccc(OC)c1	inactive: -14.2%
COc1nn(CSP(=S)(OC)OC)c(=O)s1	inactive: -7.99% [at 114 µM]
CC(Cc1ccccc1)NCCn1cnc2c1c(=O)n(C)c(=O)n2C (configuration not stated)	inactive: -10.5% [at 114 µM]
COc1cc(/C=C/c2nc3ccccc3c(=O)n2-c2ccc(Br)c(C)c2)ccc1O	inactive: -19.9%
Nc1c(C(=O)Nc2ccc(OC(F)(F)F)cc2)sc2nc3c(cc12)N1CCC3CC1	inactive: -27%
N[C@@H]1C[C@H]1c1ccccc1	inactive: -10.6%
CC(C)NCC(O)c1ccc([N+](=O)[O-])cc1 (configuration not stated)	inactive: -1.06%
COc1ccc(-c2cc3nc(C)c(CCC(=O)N4CCN(c5cc(C)ccc5C)CC4)c(C)n3n2)c(OC)c1	inactive: -32.4%
CCC1(c2ccccc2)C(=O)N(COC)C(=O)N(COC)C1=O	inactive: -14.2%
O=C(Nc1ccc2c(c1)OCCO2)c1cccn(Cc2cccc([N+](=O)[O-])c2)c1=O	inactive: -19.4%
O=C(CCl)c1ccc(Cl)cc1Cl	inactive: -16.9%
